Test results from article PMC4336329 (PLoS ONE, 2015).
Hit rate of the full screen: of about 310,000 compounds, about 14,000 (4.5%) showed an effect of 50% or more. Effects have a minus sign here. The list shows a part of the results.

biological target: human ether-à-go-go-related gene (hERG) potassium channel (human, UniProt Q12809); assay: primary screen, population patch clamp on CHO cells stably expressing hERG
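Also: peak tail current of the secondary pulse compared with the same well before compound.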

Chain of human ether-à-go-go-related gene (hERG) potassium channel (Q12809 whole entry, looked up): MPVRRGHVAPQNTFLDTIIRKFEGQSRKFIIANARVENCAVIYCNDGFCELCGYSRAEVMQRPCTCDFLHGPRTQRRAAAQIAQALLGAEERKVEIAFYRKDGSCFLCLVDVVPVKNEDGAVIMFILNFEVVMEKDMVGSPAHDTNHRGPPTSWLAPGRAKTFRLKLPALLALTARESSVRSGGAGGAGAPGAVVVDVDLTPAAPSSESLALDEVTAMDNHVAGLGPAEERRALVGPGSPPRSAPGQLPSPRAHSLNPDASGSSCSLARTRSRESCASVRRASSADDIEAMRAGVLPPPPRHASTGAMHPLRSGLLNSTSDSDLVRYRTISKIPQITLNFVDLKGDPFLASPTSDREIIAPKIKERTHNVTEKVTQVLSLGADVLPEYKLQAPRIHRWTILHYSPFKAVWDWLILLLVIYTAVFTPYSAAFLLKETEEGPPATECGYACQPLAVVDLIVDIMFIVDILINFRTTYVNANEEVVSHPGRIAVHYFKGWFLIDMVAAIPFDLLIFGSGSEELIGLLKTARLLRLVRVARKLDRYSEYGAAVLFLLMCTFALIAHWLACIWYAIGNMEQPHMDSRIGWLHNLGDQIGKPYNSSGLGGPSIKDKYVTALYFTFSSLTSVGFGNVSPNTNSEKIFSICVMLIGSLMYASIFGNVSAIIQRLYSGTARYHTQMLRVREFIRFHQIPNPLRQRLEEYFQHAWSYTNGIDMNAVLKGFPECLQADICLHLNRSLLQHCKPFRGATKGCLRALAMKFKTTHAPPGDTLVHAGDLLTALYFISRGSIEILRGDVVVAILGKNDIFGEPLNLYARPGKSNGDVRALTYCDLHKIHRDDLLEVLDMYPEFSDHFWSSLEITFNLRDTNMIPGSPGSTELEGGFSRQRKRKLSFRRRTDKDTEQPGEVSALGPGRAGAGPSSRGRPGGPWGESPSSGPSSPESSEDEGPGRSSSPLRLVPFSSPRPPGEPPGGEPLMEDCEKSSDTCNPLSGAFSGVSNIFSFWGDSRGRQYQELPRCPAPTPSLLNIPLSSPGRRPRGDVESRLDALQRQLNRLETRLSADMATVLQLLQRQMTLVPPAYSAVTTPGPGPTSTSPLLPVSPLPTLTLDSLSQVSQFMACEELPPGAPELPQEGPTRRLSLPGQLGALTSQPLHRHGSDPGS

Compound	hERG current change (%, negative = inhibition) at 10uM [%]
O=C(NCCc1c[nH]c2ccccc12)c1cc2sccc2n1Cc1ccccc1	7.09
Cl.O.O=C1C2CCCCN2C(=O)N1CCCCN1CCN(c2ccccc2Oc2ccccc2)CC1 (stereo not shown)	-55.7
COCCN(C(=O)Cc1cccs1)C(C(=O)NC1CCCC1)c1cc(OC)c(OC)c(OC)c1 (stereo not shown)	8.79
CC(NC(=S)Nc1ccccc1C(F)(F)F)C1CC2CCC1C2 (stereo not shown)	46.4
O=C(CN1CCN(C(=O)CNC(=O)c2ccc3c(c2)OCO3)CC1)Nc1ccccc1Cl	-49.3
CCn1cc(S(=O)(=O)c2ccc(C)cc2)[nH]c1=O	11.8
Cc1ccccc1/C=N/NC(=O)Cn1cnc([N+](=O)[O-])n1	-2.16
COc1ccnc(Oc2ccc3ccccc3c2)c1C#N	11.4
CC(=O)Nc1ccc(NC(=O)C(C)OC(=O)c2ccc3c(c2)OCCO3)cc1 (stereo not shown)	14.4
Cc1ccc(C)c(C(C)NC(=O)c2ccncc2)c1 (stereo not shown)	-7.4
CC(NC(=O)CNC(=O)Cc1cccc2ccccc12)c1ccc(S(N)(=O)=O)cc1 (stereo not shown)	10.6
COc1ccc(/C(O)=C2/C(=O)C(=O)N(CCN(C)C)C2c2ccccc2)cc1Cl (stereo not shown)	-0.935
CCOc1ccc(S(=O)(=O)Nc2cc(C)ccn2)c2ccccc12	2.84
CNc1c(C(=O)O)ccc2c1C(=O)c1ccccc1C2=O	-0.756
Cc1coc2cc3oc(=O)c(CCC(=O)N4CCC(C(=O)O)(c5ccccc5)CC4)c(C)c3cc12	0.933
Cc1cccc(Oc2ncnc3oc(-c4ccccc4)cc23)c1C	-2.23
O=C(Cn1cc(C(F)(F)F)cc(Cl)c1=O)Nc1cc(S(=O)(=O)N2CCOCC2)ccc1Cl	0.904
CCCc1cc(=O)[nH]c(SCCCCN2C(=O)c3ccccc3C2=O)n1	14.5
Cn1ncc(C#N)c1/N=C/N(Cc1ccccc1)Cc1ccccc1	-9.12
COc1ccc(NC(=O)CN(C)C(=O)c2c(C)nn(-c3ccccc3)c2Cl)cc1	-1.42
N#Cc1ccccc1NC(=O)C(=O)NCCCN1CCCC1=O	-36.5
Nc1c(-c2ccc(Cl)cc2)cnc2c(-c3ccc(F)cc3)cnn12	24

Compound	hERG current change (%, negative = inhibition) at 10uM [%]
COc1ccc(C)cc1S(=O)(=O)N(C)CC(=O)NC1CC1	9.54
Cc1cccc(N=c2oc3cc(O)ccc3cc2C(N)=O)c1	-17.3
O=C(NCc1ccccc1F)C1CCCN1S(=O)(=O)c1ccc(Cl)cc1 (stereo not shown)	-8.3
CC[C@@H]1CN(C)[C@H]2Cc3c([nH]c4ccccc34)C(=O)C[C@@H]1[C@@H]2C(=O)OC	11.8
COC(=O)[C@]1(Cc2ccccc2)N[C@H](c2ccc(-c3ccccc3)cc2)[C@@H]2C(=O)N(C)C(=O)[C@@H]21.O=C(O)C(F)(F)F	11.4
Cc1nc(C)n(CCNC(=O)c2ccco2)n1	27
CC(C)(C)n1nc2c(c1NC(=O)c1cccc(C(F)(F)F)c1)CS(=O)C2 (stereo not shown)	-7.23
CCN(CC)c1nc2c(C)cccn2c(=O)c1C=C1C(=O)NC(=O)NC1=O	11.6
COc1ccc(C(=O)Nc2ccc3cn[nH]c3c2)c(OC)c1	12.6
Oc1[nH]c2ccccc2c1N=Nc1nncc2ccccc12	-15
COC(=O)NNC(=O)c1ccc(Cl)cc1Cl	19.8
Cc1ccccc1OCCCCCn1ccnc1	-25.7
O=C1CCC(=O)N1c1nc2n(n1)C(c1ccccc1)C=C(c1ccc(Br)cc1)N2 (stereo not shown)	1.46
CCN(CC)S(=O)(=O)c1ccc(C)c(NC(=S)Nc2cccc(S(=O)(=O)N3CCCCCC3)c2)c1	-4.58
CC(=C/c1ccccc1)/C=N/NC(=O)CSc1nc(C)cc(C)n1	12.8
O=P(Nc1cccnc1)(Oc1ccccc1)Oc1ccccc1	13.8
COc1ccc(/C=C2\CCCC3C2=NN(C(=O)c2ccco2)C3c2ccc(OC)c(OC)c2)cc1OC (stereo not shown)	-22.5
N=c1c(C(=O)NC2CCCCC2)cc2c(=O)n3ccccc3nc2n1Cc1ccco1	-77
O=C(Nc1ccc(NC(=O)C2CC2)cn1)c1ccccc1	2.98
CC[C@@H](C)[C@H](CN[C@H](CNC)C(C)C)NC[C@@H](C)c1ccc(CC(C)C)cc1	-10.4
CCC1(C)OC(=O)N(CCCn2ccnc2C)C1(C)O (stereo not shown)	-8.95
